Reference: article PMC4336329 (PLoS ONE, 2015)
Among all 310,000 compounds or so, about 14,000 (4.5%) showed an effect of 50% or more. The effect is printed as a negative number. The list shows a part of the results.

Molecular target: human ether-à-go-go-related gene (hERG) potassium channel (human, UniProt Q12809)
Assay: primary screen, population patch clamp on CHO cells stably expressing hERG
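Also: peak tail current of the secondary pulse compared with the same well before compound.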

human ether-à-go-go-related gene (hERG) potassium channel, sequence (Q12809 whole entry, looked up): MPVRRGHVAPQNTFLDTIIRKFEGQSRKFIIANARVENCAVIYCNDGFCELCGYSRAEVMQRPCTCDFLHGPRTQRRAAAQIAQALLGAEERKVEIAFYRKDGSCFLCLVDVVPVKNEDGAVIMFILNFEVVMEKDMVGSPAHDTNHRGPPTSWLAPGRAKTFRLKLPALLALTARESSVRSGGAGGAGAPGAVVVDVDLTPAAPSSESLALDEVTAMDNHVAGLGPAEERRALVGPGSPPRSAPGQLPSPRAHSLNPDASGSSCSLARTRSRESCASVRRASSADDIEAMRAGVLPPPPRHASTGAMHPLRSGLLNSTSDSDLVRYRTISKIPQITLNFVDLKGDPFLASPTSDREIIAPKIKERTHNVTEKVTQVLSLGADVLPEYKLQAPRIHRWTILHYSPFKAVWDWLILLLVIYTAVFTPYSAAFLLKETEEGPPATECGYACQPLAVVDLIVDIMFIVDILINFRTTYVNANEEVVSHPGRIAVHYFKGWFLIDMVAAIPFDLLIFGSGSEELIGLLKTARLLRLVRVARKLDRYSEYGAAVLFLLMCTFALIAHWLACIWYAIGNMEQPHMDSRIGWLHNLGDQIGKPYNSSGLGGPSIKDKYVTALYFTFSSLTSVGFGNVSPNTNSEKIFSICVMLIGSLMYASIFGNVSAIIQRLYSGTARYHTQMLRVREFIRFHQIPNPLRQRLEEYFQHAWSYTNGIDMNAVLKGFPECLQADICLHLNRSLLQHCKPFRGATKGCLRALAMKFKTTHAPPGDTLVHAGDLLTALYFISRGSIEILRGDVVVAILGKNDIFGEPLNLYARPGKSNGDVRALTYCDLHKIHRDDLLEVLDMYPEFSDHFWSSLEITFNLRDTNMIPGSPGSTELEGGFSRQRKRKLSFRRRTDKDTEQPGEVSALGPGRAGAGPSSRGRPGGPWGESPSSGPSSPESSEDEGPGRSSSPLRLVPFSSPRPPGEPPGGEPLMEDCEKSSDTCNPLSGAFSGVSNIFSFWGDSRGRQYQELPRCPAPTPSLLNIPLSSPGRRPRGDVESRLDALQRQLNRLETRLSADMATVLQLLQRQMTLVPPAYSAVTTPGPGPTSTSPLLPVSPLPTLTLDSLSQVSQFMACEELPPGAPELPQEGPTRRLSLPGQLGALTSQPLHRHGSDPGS

| Structure (SMILES) | hERG current change (%, negative = inhibition) at 10uM [%] |
| --- | --- |
| CCOc1ccc(N(C(=O)Cn2nnc3ccccc32)C(C(=O)NC(C)(C)CC)c2cccn2C)cc1 (stereo not drawn) | 22.7 |
| Cc1cccc(NC2=C(Cl)C(=O)OC2NC(=O)c2ccccc2)c1 (stereo not drawn) | 1.58 |
| CCOc1ccc(NC(=O)CCN2C(=O)c3cccc([N+](=O)[O-])c3C2=O)cc1 | 12.1 |
| Cc1ccc(NC(=O)NC(=O)c2ccccc2)cc1F | 18.1 |
| O=C(O)CC(CCc1ccccc1)OC1OC(CO)C(O)C(O)C1O (stereo not drawn) | 14.4 |
| N#Cc1ccc(NC(=O)COC(=O)CSc2nnc(-c3ccc(Cl)cc3)o2)cc1 | -3.87 |
| CS(=O)(=O)N1CCc2cc(-c3csc(NC(=O)C(c4ccccc4)c4ccccc4)n3)ccc21 | 9.14 |
| Clc1ccc(-c2cc(C3CCNCC3)[nH]n2)cc1 | -3.21 |
| COCCNC(=O)COc1ccc(Oc2ccccc2)cc1 | 4.33 |
| CC1CCCC(NC(=O)CCCn2c(=S)[nH]c3ccccc3c2=O)C1C (stereo not drawn) | 4.09 |
| O=C(CNCCC1=CCCCC1)Nc1ccccc1N1CCCCC1.O=C(O)C(=O)O | 7.28 |
| COC(=O)C1=C(C)NC(=S)N(C(C)=O)C1c1ccccc1 (stereo not drawn) | -8.87 |
| Clc1ccc(OCc2nc(-c3ccncc3)no2)c(Br)c1 | -20.1 |
| CCOC(=O)CCn1c2nc(C)cc(C)c2c(=O)n1-c1ccccc1 | -6.66 |
| CC1CCN(C(=O)c2[nH]cnc2C(=O)NCc2ccc(CNC(=O)OC(C)(C)C)cc2)CC1 | -2.55 |
| N#Cc1sc2nc(-c3cccs3)cc(-c3ccc(F)cc3)c2c1N | 14.1 |
| CN(C)c1ccc(-c2sc(Nc3ccccc3)n[n+]2-c2ccc(F)cc2)cc1.[Cl-] | -73.1 |
| O=C(NC(=S)NCC1CCCO1)c1cccs1 (stereo not drawn) | 13.7 |
| NC(=O)Cn1c(O)c(N=NC(=O)CNC(=O)/C=C/c2ccccc2)c2ccccc21 | 13.3 |
| COc1cc(OC)cc(C(=O)NCC2CCCO2)c1 (stereo not drawn) | 7.37 |
| Cc1ccc(C)c(NC(=O)CN(C)S(=O)(=O)c2ccc(F)cc2)c1 | 3.47 |
| Cn1cnnc1SCCNS(=O)(=O)c1ccccc1 | 10.8 |
| Nc1ccc(C(=O)N(CCO)CCO)cc1 | 18 |

| Structure (SMILES) | hERG current change (%, negative = inhibition) at 10uM [%] |
| --- | --- |
| Cc1cc(NC(=O)CN2C(=O)NC3(CCCCC3C)C2=O)no1 (stereo not drawn) | -4.25 |
| COC(=O)c1cc(OC)c(OC)cc1NC(=O)Cc1cccs1 | 0.709 |
| Cc1ccc(C)c(Cn2nnc3c(=O)[nH]c(C4CCN(C(=O)c5cccs5)CC4)nc32)c1 | -66.5 |
| COc1ccc(N)c2c1C(=O)c1ccccc1C2=O | -10.4 |
| CC(=O)c1cccc(NC(=O)c2ccc(OCc3c(C)noc3C)cc2)c1 | 19.2 |
| CCOc1ccc(N2CC(C(=O)Nc3nnc(SCCOC)s3)CC2=O)cc1 (stereo not drawn) | -37.4 |
| CC(C)(C)NC(=O)NC(=O)CN1CCN(S(=O)(=O)c2ccccc2)CC1 | 7.92 |
| COc1ccc(Br)c(OC)c1C(=O)NC(=O)Nc1nc(C)cc(C)n1 | -5.8 |
| Cc1cccc(NC(=O)c2ccc3ccccc3n2)c1C | 16.3 |
| CNS(=O)(=O)c1ccc(Cl)nc1 | 4.79 |
| O=C(Nc1ccc(OC(F)(F)F)cc1)C1CCCN(S(=O)(=O)c2cccnc2)C1 (stereo not drawn) | -38 |
| CC(C)c1cccc(C(C)C)c1OC(=O)[C@H]1OC(c2ccc(Br)cc2)=C[C@@H]1c1ccc(Br)cc1 | 9.4 |
| COc1ccc(-c2nc(CSCC(=O)N3CCC(C(N)=O)CC3)c(C)o2)cc1OC | -0.184 |
| ClCc1csc(-c2ccccc2Cl)n1 | -0.651 |
| COc1cc(S(=O)(=O)NCc2ccc3c(c2)OCO3)c(OC)cc1C | 16.1 |
| COc1ccc(C(=O)NC(=C(Cl)Cl)S(=O)(=O)c2ccc(C)cc2)cc1 | -1.64 |
| COc1cc(NC(=O)NS(=O)(=O)c2ccc(C)cc2)cc(OC)c1 | -1.04 |
| CCc1ccc2oc(=O)cc(CN3CCCCC3C)c2c1.Cl (stereo not drawn) | -16.7 |
| COc1ccc(S(=O)(=O)N(C)CC(=O)Nc2ccccc2C(F)(F)F)cc1 | 4.25 |
| CC(=O)Nc1ccc(OCC(O)CNC(C)C)cc1 (stereo not drawn) | 18.5 |
| O=C(NNc1ccccc1)C(CCO)C(=O)NNc1ccccc1 | 15.8 |
| COc1ccc(OC)c(NC(=O)CSc2ccc3nnc(-c4ccccn4)n3n2)c1 | -69 |
